# Laboratory results published in PubChem BioAssay AID1745853 (National Center for Advancing Translational Sciences (NCATS), 2022).
# “And” between values parts separate entries of the source, which are not always exact repeats. Identical values can stand only once. Some of the results follow. The main result of the screen is listed elsewhere. These columns were measured beside it and carry no call. Bridge positions count the residues as written; N and C are the ends. Square brackets hold non-standard residues; d marks the D form. Peptide text beside a SMILES is read from it. * marks the point of attachment. X1 = CCC(C)C(N)C1=NC(C(=O)*)CS1; dOrn = NCCC[C@@H](N)C(=O)O
# Columns and labels:
# Experiment in all cases: Primary Screen for Target Class Profiling of Small Molecule Inhibitors of Methyltransferases
# [1] = molecular target: Glycine N-methyltransferase (Homo sapiens) (UniProt Q14749); details: purified enzyme, MTase-Glo SAH luminescence; measured here: GNMT inhibition; at 40 µM; stronger effect = lower value
# In short: (§1)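 Each enzyme was assayed with SAM and its substrate. SAH formation detected by MTase-Glo luminescence; single-point 40 uM screen[…].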
# [2] = molecular target: Guanidinoacetate N-methyltransferase (Homo sapiens) (UniProt Q14353); details: purified enzyme, MTase-Glo SAH luminescence; measured here: GAMT inhibition; at 40 µM; stronger effect = lower value
# In short: as §1
# [3] = molecular target: Histamine N-methyltransferase (Homo sapiens) (UniProt P50135); details: purified enzyme, MTase-Glo SAH luminescence; measured here: HNMT inhibition; at 40 µM; stronger effect = lower value
# In short: as §1
# [4] = molecular target: Nicotinamide N-methyltransferase (Homo sapiens) (UniProt P40261); details: purified enzyme, MTase-Glo SAH luminescence; measured here: NNMT inhibition; at 40 µM; stronger effect = lower value
# In short: as §1
# [5] = molecular target: Phenylethanolamine N-methyltransferase (Homo sapiens) (UniProt P11086); details: purified enzyme, MTase-Glo SAH luminescence; measured here: PNMT inhibition; at 40 µM; stronger effect = lower value
# In short: as §1
# On the % scale 0 is the no-effect control and ±100 the full control effect.
Compound,"activity change, negative = inhibition [1]","activity change, negative = inhibition [2]","activity change, negative = inhibition [3]","activity change, negative = inhibition [4]","activity change, negative = inhibition [5]"
COCCN1C(=O)c2cc(-c3ccc(OC)cc3)nn2CC1(C)C(=O)NCc1ccccc1OC (stereo not given),-0.374%,5.77%,1.17%,-7.13%,-4.63%
CC(C)(C)NCC(O)c1ccc(O)c(CO)c1 (stereo not given),-0.827%,9.3%,2.84%,0.362%,9.38%
Cc1sc2c(c1C)C(c1ccc(Cl)cc1)=N[C@@H](CC(=O)Nc1ccc(OCCOCCOCCOCCNc3cccc4c3C(=O)N(C3CCC(=O)NC3=O)C4=O)cc1)c1nnc(C)n1-2 (stereo not given in full),4.19%,2.02%,1.89%,-40.1%,-2.76%
COC(=O)c1ncn2c1C(=O)N(CCc1ccccc1)C(C)(C(=O)NC1CCCC1)C2 (stereo not given),-0.723%,0.239%,-1.49%,-1.88%,-2.22%
CCC(C)C(N)C1=NC(C(=O)N[C@@H](CC(C)C)C(=O)N[C@H](CCC(=O)O)C(=O)N[C@H](C(=O)N[C@H]2CCCCNC(=O)[C@H](CC(N)=O)NC(=O)[C@@H](CC(=O)O)NC(=O)[C@H](Cc3cnc[nH]3)NC(=O)[C@@H](Cc3ccccc3)NC(=O)[C@H]([C@@H](C)CC)NC(=O)[C@@H](CCCN)NC2=O)[C@@H](C)CC)CS1 (stereo not given in full) (X1-L[dE]IK[dOrn]I[dF]H[dD]N; lactam 4-C),1.42% and 3.28%,11.6% and 26%,7.24% and 14%,1.84% and 11.9%,9% and 8.94%
COC1CC(O[C@H]2CC[C@]3(C)C4CC[C@@]5(C)C(=O)[C@]4(CC[C@@H]3C2)CC[C@@H]5C2=CC(=O)OC2)OC(C)C1OC1OC(COC2OC(CO)C(O)C(O)C2O)C(O)C(O)C1O (stereo not given in full),3.28%,7.4%,7.08%,-4.36%,6.57%
O=C(N1CCOCC1)N1C2CCC1CN(c1ccc(C(F)(F)F)cc1)C2,-8.41%,-6.65%,-4.12%,-15%,-10.8%
O=C(O)C[C@H]1CCC(=O)[C@@H]1C/C=C\CCOC1OC(CO)C(O)C(O)C1O (stereo not given in full),0%,7.26%,9.46%,-5.53%,2.53%
O=C(Cc1ccc(C(F)(F)F)cc1)N1CC(COc2ccccc2)C2(C1)CN(C(=O)c1cn[nH]c1)C2 (stereo not given),-13.7%,-12.6%,-7.39%,-26.6%,-17.5%
CCOc1ccc(CCNc2nc3c(S(=O)(=O)c4ccccc4)nnn3c3ccccc23)cc1OCC,-3.3%,0%,-0.236%,-3.31%,-1.66%
Fc1ccc(-c2cncc(CN3CCN(c4cccc5c4OCCO5)CC3)c2)cc1,-5.03%,2.08%,5.13%,-21.5%,-5.66%
COC(=O)/C=C/C12COC(C)(C)C1C(O)C(OC(C)=O)C1(C)C2CCC2(C)C(c3ccoc3)OC(=O)C3OC321 (stereo not given),-7.62%,5.75%,-2.75%,-10.7%,2.91%
CCOc1ccc(CN2C(=O)c3cc(-c4ccc(OC)cc4)nn3CC2(C)C(=O)NCc2ccccc2)cc1 (stereo not given),5.92%,3.37%,8.99%,7.95%,3.77%
CC(C)c1ccc(N2C(=O)c3cc(-c4ccccc4)nn3CC2(C)C(=O)NCc2ccccc2)cc1 (stereo not given),3.91%,0.054%,3.77%,1.31%,-1.22%
CC(C)Cn1c(=O)c2ccccc2n2c(=O)n(Cc3ccc(F)cc3)nc12,5.31%,1.57%,10.7%,-5.48%,5.75%
COc1ccc(CCNC(=O)CCc2nnc3n(CCc4ccccc4)c(=O)c4ccccc4n23)cc1OC,-1.81%,1.11%,0.479%,3.18%,-4.22%
CC/C=C/CC1=C(CCCCCCCC(=O)O)CCC1=O,0.198%,-4.18%,8.28%,-16.3%,2.98%
CC(=O)NC[C@H]1CCN(Cc2ccc(Cl)cc2F)C[C@H]1N(C)C,-0.952%,0.085%,1%,0.053%,-4.01%
CO[C@H]1C[C@@H]2CC[C@@H](C)[C@@](O)(O2)C(=O)C(=O)N2CCCC[C@H]2C(=O)O[C@H]([C@H](C)C[C@@H]2CC[C@@H](OP(C)(C)=O)[C@H](OC)C2)CC(=O)[C@H](C)/C=C(\C)[C@@H](O)[C@@H](OC)C(=O)[C@H](C)C[C@H](C)/C=C/C=C/C=C/1C,-5.11%,13.3%,-6.33%,-4.83%,4.35%
C=C1C(O)CC2C(C(=O)O)=COC(O[C@@H]3O[C@H](COC(=O)c4ccc(O)cc4)[C@@H](O)[C@H](O)[C@H]3O)C12 (stereo not given in full),0%,5.21%,4.14%,-7.63%,6.18%
COC1CCCN(c2cc(-c3cccnc3)nc3c(C)noc23)C1 (stereo not given),-8.11%,-2.29%,-8.62%,-16.7%,7.47%
CCn1cc(C(=O)N2C[C@H](CO)C[C@H](CN3CCCC3)C2)c(C)n1,-1.01%,1.2%,-1.44%,-0.884%,-1.41%
CC1(C(=O)NC2CCCCC2)Cn2c(ccc2-c2ccco2)C(=O)N1Cc1cccc(F)c1 (stereo not given),-0.273%,0%,8.46%,5.3%,2.53%
CC(C)OCCCNC(=O)C1(C)Cn2c(cc3ccccc32)C(=O)N1CCc1cccs1 (stereo not given),6.74%,1.19%,6.97%,6.63%,2.44%
Cc1ccc2c(cnn2C(=O)CCC(=O)N2CCN(C)CC2)c1,-7.59%,3.14%,-1.04%,-7.56%,-3.02%
CCC(C)NC(=O)c1ccc2c(=O)n(Cc3ccccc3)c3nn(CC(=O)NC4CCCC4)c(=O)n3c2c1 (stereo not given),5.69%,0%,10%,0.208%,3.34%
CCCN1C(=O)c2cc(-c3ccc(C(C)C)cc3)nn2CC1(C)C(=O)NC1CCCCC1 (stereo not given),-4.36%,1.12%,4.3%,3.52%,-0.167%
